From PubChem BioAssay AID686979 (National Center for Advancing Translational Sciences (NCATS), 2013) come the findings set out here.

About 50,000 (12%) of roughly 420,000 compounds were called active. Roughly 26% stayed inconclusive and do not appear here. The call rests on the fitted dose curve; in most records, active means well fitted inhibition curve with a large enough effect; inconclusive means small, poorly fitted or top-dose-only effect; inactive means flat fitted curve, though single readings scatter. Only a part is listed here, and it is no random draw. Where a structure was tested more than once in an assay, its records may differ in their call.
On the % scale 0 is the no-effect control and ±100 the full control effect; potency means the concentration at half of the fitted maximal effect.

A short description of the experiment: qHTS for Inhibitors of human tyrosyl-DNA phosphodiesterase 1 (TDP1): qHTS in cells in presence of CPT. Further: nearly all actives have a fitted effect of over 55% in size. Particulars: chicken DT40 Tdp1-/-;hTDP1 cells + 20 nM CPT, ATP luminescence, 48 h; series mostly up to 46.2 µM; activity change, negative = growth inhibition: at the top concentration. The method, boiled down:
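Chicken DT40 Tdp1-/- cells complemented with human TDP1, 400 cells/well, exposed to compounds plus 20 nM camptothecin for at least 48 h at 37 C; viability read as ATP content by CellTiter-Glo luminescence.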
For orientation: In qHTS, concentration-response curves come from the screen itself.
In the case of `O=C1NCCNC1(c1c[nH]c2ccccc12)C(F)(F)F` (centres undefined), the “activity change, negative = growth inhibition” value was inactive: -7.51%.

With `CCCC[C@H]1COCCS(=O)(=O)N1Cc1cccc(Cl)c1`, the “activity change, negative = growth inhibition” value was inactive: 0.0482%.

Regarding `O=C(Nc1ccc(C2=NCCN2)cc1)c1ccc(C(=O)Nc2ccc(C3=NCCN3)cc2)c(Cl)c1`, the Potency was active: 7.31 µM.

As to `COc1ccc(Br)cc1S(=O)(=O)Nc1ccc(Cl)cn1`, the “activity change, negative = growth inhibition” value is inactive: 31.9%.

With `CCOC(=O)[C@@H]1[C@H]2COc3cc(OC)ccc3[C@@H]2N2C(=O)N(c3ccc(C)cc3)C(=O)[C@]12C`, the “activity change, negative = growth inhibition” value was inactive: -12.5%.

Turning to `CCOC(=O)c1c(/N=C/c2cc(C)ccc2O)sc2c1CCN(C)C2`, the “activity change, negative = growth inhibition” value is inactive: 31.6%.

Regarding `COc1ccc(NS(=O)(=O)c2ccc3c(c2)[C@H]2C=CC[C@H]2[C@@H](c2ccc(C(=O)O)cc2)N3)cc1`, the “activity change, negative = growth inhibition” value is inactive: -28.2%.

For `COC(=O)[C@H]1[C@@H]2C[C@H]3c4[nH]c5ccccc5c4CCN3C[C@@H]2CC[C@@H]1O`, the “activity change, negative = growth inhibition” value was inactive: 8.87%.

In the case of `COc1cccc(C(=O)Nc2cccc3c2ccc2cccn23)c1`, the Potency is active: 16.4 µM.

`NCCCNC(=O)c1ccc(/C=N/O)nc1`: the “activity change, negative = growth inhibition” value is inactive: 33.3%.

Turning to `Cc1cccc(NC(=O)CCCc2ccccc2)c1C`, the “activity change, negative = growth inhibition” value is inactive: 35.6%.

On to `COc1ccc2[nH]c(C)c(C(=O)CN(C)C)c2c1`, for which the “activity change, negative = growth inhibition” value was inactive: 9.74%.

In the case of `CCCCCCCCCCCCCCCC(=O)NCCO`, the Potency result is “inactive”.

Take `C[C@H](NC(=O)C1(c2ccccc2)CCN(C(=O)OC(C)(C)C)CC1)C(=O)N[C@@H](C(=O)O)c1ccccc1`: the “activity change, negative = growth inhibition” value is inactive: -1.59%.

Take `Cc1nc(SCc2ccc(F)cc2)c([N+](=O)[O-])[nH]1`: the “activity change, negative = growth inhibition” value was inactive: 33.7%.

Take `O=C(C1CCCO1)N1CCN(C(=S)Nc2ccc(Cl)c(Cl)c2)CC1` (centres undefined): the “activity change, negative = growth inhibition” value is inactive: 31.4%.

As to `Cc1nc2cc(NCc3nc4ccccc4n3Cc3ccccc3)ccc2n1C`, the Potency was active: 23.1 µM.

`CC(C)C[C@H]1COc2cccc(N3CCC[C@@H]3CO)c2S(=O)(=O)N1`: the “activity change, negative = growth inhibition” value was inactive: -15.9%.

`O=C(Cn1ccn(-c2ccc(F)c(F)c2)c(=O)c1=O)NCCc1ccccc1`: the “activity change, negative = growth inhibition” value is inactive: -17.9%.

Turning to `N[C@H](CO)C(=O)O`, the “activity change, negative = growth inhibition” value was inactive: -3.74%.

In the case of `COC(=O)C[C@H]1c2ccccc2S(=O)(=O)N1c1cccc(OC)c1`, the “activity change, negative = growth inhibition” value was inactive: -1.55%.

As to `O=C1CCN(Cc2ccc(O)cc2)CCN1[C@H](CO)Cc1ccccc1`, the “activity change, negative = growth inhibition” value is inactive: 13.7%.

Regarding `NCCCCNCCCN`, the Potency result was “inactive”.

On to `Cc1ccc(S(=O)(=O)N(C)C[C@@H]2OCc3cnnn3CCCC(=O)N([C@H](C)CO)C[C@@H]2C)cc1`, for which the “activity change, negative = growth inhibition” value was inactive: -15.6%.

Take `COCC(=O)Nc1ccc2c(c1)[C@@H]1C[C@H](CC(=O)OC)O[C@H](CO)[C@@H]1O2`: the “activity change, negative = growth inhibition” value is inactive: 18.5%.

For `C[C@@H]1CN([C@H](C)CO)C(=O)CCCn2nncc2CO[C@H]1CN(C)S(=O)(=O)c1ccc(Oc2ccccc2)cc1`, the “activity change, negative = growth inhibition” value was inactive: -20.3%.

In the case of `CC(=O)O[C@H]1C[C@@]2(C)[C@@H](C[C@@H](O)[C@H]3[C@@]4(C)CC[C@@H](O)[C@@H](C)C4CC[C@@]32C)/C1=C(\CCC=C(C)C)C(=O)O` (some centres undefined), the “activity change, negative = growth inhibition” value was inactive: -17.1%.

With `CCC(Sc1nncn1C)C(=O)Nc1cc(C)on1` (centres undefined), the “activity change, negative = growth inhibition” value was inactive: 30.8%.

In the case of `Cc1c(C(=O)NCC2CCCO2)sc2nc(-c3ccc(F)cc3)cn12` (centres undefined), the Potency was active: 14.6 µM.

`Cc1ccc(C(C)C)c(OCC(=O)OCC(=O)NC2CCS(=O)(=O)C2)c1` (centres undefined): the “activity change, negative = growth inhibition” value was inactive: 0.428%.

For the molecule `O=c1c2ccccc2c(/C=N/c2ncn[nH]2)c(O)n1Cc1ccccc1`, the “activity change, negative = growth inhibition” value was inactive: -8.11%.

As for `COc1ccc(NC(=O)CN2CCN(c3ccccc3C)CC2)cc1`, the “activity change, negative = growth inhibition” value is inactive: 32.9%.

As to `COc1cc(/C=C2/NC(=O)NC2=O)cc(Br)c1OCc1cccc(C(=O)O)c1`, the “activity change, negative = growth inhibition” value was inactive: 35.2%.

As to `COc1ccc(OC)c(-c2cc(C(=O)NCc3ccc(Cl)cc3)no2)c1`, the “activity change, negative = growth inhibition” value was inactive: -23.6%.

As to `CC1=NN(c2ccc(S(=O)(=O)O)cc2Cl)C(=O)C1`, the “activity change, negative = growth inhibition” value is inactive: 38.2%.

Take `COc1ccc(N2CCN(C(=O)CN(C)S(=O)(=O)c3cccs3)CC2)cc1`: the “activity change, negative = growth inhibition” value was inactive: -10.2%.

`COc1ccc(NC(=O)C2CCCN(S(=O)(=O)c3ccc4c(c3)CCCN4C(C)=O)C2)cc1` (centres undefined): the “activity change, negative = growth inhibition” value was inactive: -14.3%.

Take `COc1ccccc1C(CNC(=O)c1ccc(S(=O)(=O)NCc2ccco2)cc1)N(C)C` (centres undefined): the “activity change, negative = growth inhibition” value was inactive: 43.4%.

For `O=C(O)CCC(=O)Nc1ccc(C(=O)OCC(=O)c2ccc(Cl)cc2)cc1`, the “activity change, negative = growth inhibition” value is inactive: 34.9%.

For the molecule `COc1ccc(/C=C2\SC(=O)N(CCC(=O)Nc3ccccc3)C2=O)cc1OC`, the “activity change, negative = growth inhibition” value is inactive: -0.7%.

For `CCCS(=O)(=O)N1CCc2ccc(NC(=O)c3ccccc3Cl)cc2C1`, the “activity change, negative = growth inhibition” value was inactive: 13%.

For the molecule `Cc1cccc(NC(=S)N=Nc2c(O)n(CN3CCOCC3)c3ccccc23)c1C`, the Potency was active: 5.8 µM.

As to `Cc1nn(C(C)C(=O)N2CCOCC2)c(C)c1[N+](=O)[O-]` (centres undefined), the “activity change, negative = growth inhibition” value was inactive: 40.8%.

With `CCOc1ccccc1C(=O)N1CC(=O)Nc2ccc(Cl)cc2C1c1ccccc1` (centres undefined), the Potency was active: 20.6 µM.

On to `CNC[C@@H]1Oc2cc(Br)ccc2S(=O)(=O)N([C@H](C)CO)C[C@H]1C`, for which the “activity change, negative = growth inhibition” value is inactive: 2.43%.

Take `CN(C)CC/C=C1\c2ccccc2CSc2ccccc21`: the “activity change, negative = growth inhibition” value is inactive: 3.15%.

Consider `Cc1ccc(C)c(Nc2c([N+](=O)[O-])c(=O)oc3ccccc23)c1`, for which the Potency is active: 23.1 µM.

Turning to `Cc1cccc(NS(=O)(=O)c2ccc3c(c2)[C@H]2C=CC[C@H]2[C@@H](c2ccc(F)cc2)N3)c1`, the Potency was active: 10.3 µM.

For the molecule `Cc1ccccc1CSCCC(=O)NCCc1ccccc1`, the “activity change, negative = growth inhibition” value was inactive: 36.6%.

In the case of `CC(C)C(NC(=O)C(NC(=O)C1OC2OC(C)(C)OC2C2OC(C)(C)OC12)C(C)C)C(=O)O` (centres undefined), the “activity change, negative = growth inhibition” value is inactive: 28.2%.

On to `Fc1ccccc1Cc1noc(CN2CCN(Cc3ccc4c(c3)OCO4)CC2)n1`, for which the “activity change, negative = growth inhibition” value was inactive: 11.3%.

Consider `Cc1nnc(NS(=O)(=O)c2ccc(N=Nc3ccc(N)nc3N)cc2)s1`, for which the “activity change, negative = growth inhibition” value is inactive: 20.1%.

Consider `Cn1[nH]c(=O)c(Cl)c(Cl)c1=O`, for which the “activity change, negative = growth inhibition” value was inactive: -2.74%.

Take `Cc1cccc(C)c1NC(=O)C1CCCCN1C` (centres undefined): the “activity change, negative = growth inhibition” value was inactive: -0.835%.

Regarding `O=C(Nc1ccncc1)Nc1ccc(Cl)cc1Cl`, the Potency is active: 18.4 µM.

As for `COc1cc(C(=S)N2CCCC2)ccc1OCC(N)=O`, the “activity change, negative = growth inhibition” value was inactive: 4.54%.

Take `COc1ccc(NC(=O)CCN2CCN(c3ccc(F)cc3)CC2)cc1`: the Potency is active: 23.1 µM.

`COc1ccc(NC(=O)CNC(=O)c2cccs2)cc1Cl`: the “activity change, negative = growth inhibition” value was inactive: 41.8%.

With `CCOC(=O)c1c(N2C(=O)Nc3ccccc3N2O)n[nH]c1-c1cccc(Cl)c1`, the “activity change, negative = growth inhibition” value is inactive: 46.5%.

For `Cn1c(=O)[nH]c(=O)c2c1nc(N)n2Cc1ccccc1`, the “activity change, negative = growth inhibition” value is inactive: 46%.

In the case of `C[C@H](CO)N1C[C@H](C)[C@@H](CN(C)S(=O)(=O)c2ccc3c(c2)OCCCO3)OCc2cnnn2CCCC1=O`, the “activity change, negative = growth inhibition” value was inactive: 0.607%.

For `O=C(c1ccc(COc2ccccc2Br)cc1)N1CCCCC1`, the Potency was active: 14.6 µM.

As for `Nc1ccc(C=C2C=Cc3ccccc32)cc1`, the “activity change, negative = growth inhibition” value was inactive: 4.1%.

In the case of `COCC1=C(C(=O)OC(C)OC(=O)OC(C)C)N2C(=O)[C@@H](NC(=O)/C(=N\OC)c3csc(N)n3)[C@H]2SC1` (some centres undefined), the Potency entry is “inactive”.
